Reference: article PMC12136788
The other results are listed elsewhere or left out.

T1: UNK ZnF1-3 (human, UniProt Q9C0B0 31-174)
T1 sequence: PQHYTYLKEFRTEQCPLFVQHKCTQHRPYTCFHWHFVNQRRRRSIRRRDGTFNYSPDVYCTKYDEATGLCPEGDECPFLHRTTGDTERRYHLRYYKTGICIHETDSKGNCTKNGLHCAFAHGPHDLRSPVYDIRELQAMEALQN

B1: chr16:94664741:94664742:+_ENSMUSG00000040785_ENSMUST00000117648|mus_hu|mus_mus_mus_hu_False|48_68 (ssRNA)
RNA: GGGAGUUCUACAGUCCGACGAUCUGGUACUGAUCUUGGUAGCUGAUAUUCAGGAGAAAGGCUGGCCAAAGGUGUGUAUAUGCUGGUGAACUGCGACAAACCUGGUAACACGUUUAUGUAUGCUGGCGGUGUCUGGGUGAUAUCCAACAGAGGAUUGAGCAUCA
B2: chr4:95202638:95202639:+_ENSG00000163104_ENST00000354268|hu_mus|FALSE|FALSE (ssRNA)
RNA: GGGAGUUCUACAGUCCGACGAUCUAAGAGAACCUCUAGUAUAUCCAGCAUCAUGGUAAACUGGCUGAAUAAUACAACUCUAUCACCCUUCUGUUUCAACUCAGACAAGAUGCAUCCUAAGGCUCGGAAUUUCCCAGAAUCUAACAACAGAGGAUUGAGCAUCA
B3: chr17:65930154:65930155:-_ENSMUSG00000024091_ENSMUST00000024897|mus_mus|FALSE|FALSE (ssRNA)
RNA: GGGAGUUCUACAGUCCGACGAUCGGUGACAUUAUCUCUGAAGGACACGGCUGAGGUGGAUCCAGGUUUAUCCGAAUGUGCUACCUUUCUGAGCCUUAGGCCUUCAUCUCUCAGGUGUCGGUUUUCUUCUGAGAGCUUCAUCAUCAACAGAGGAUUGAGCAUCA
B4: chr14:90870812:90870813:+_ENSG00000198668_ENST00000553542|hu_hu|FALSE|FALSE (ssRNA)
RNA: GGGAGUUCUACAGUCCGACGAUCAUCAAUAUCUGCUUCUCUGAUCAUUUCAUCUACUUCUUCAUCUGUUAGUUUUUCUCCUAAGUUUGUCAUGACGUGACGUAGUUCUGCUGCACUGAUAUAACCAUUGCCAUCCUUGUCAAACAACAGAGGAUUGAGCAUCA
B5: chr1:130260868:130260869:-_ENSMUSG00000026356_ENSMUST00000027602|mus_mus|FALSE|FALSE (ssRNA)
RNA: GGGAGUUCUACAGUCCGACGAUCCGUGAGUCGUUUGGGGUCACGAGGGAACAUUGAGGUCUGGCGUACGUUAUGCAAUCCUAAAAACAGCAUCGUCACCCUUUCCAGCCCAAUGCCACCACCAGCAUGAGGAGGAGCUCCAAACAACAGAGGAUUGAGCAUCA
B6: chr18:67649703:67649704:-_ENSMUSG00000024533_ENSMUST00000115050|mus_hu|FALSE|FALSE (ssRNA)
RNA: GGGAGUUCUACAGUCCGACGAUCGUUACUGUAUUUUGAUGUGGUAUGAAAUGCAGCCGCCAUGCCUUUCAUGAAACGGUGCUAUCGUGGUGCUGACUACAGACAUGUCCUAUGGCUUUCAGGAAAUUAUUGUGCAUGUGCAUUCAACAGAGGAUUGAGCAUCA
B7: 93602292_93602412_3376_3pUTR_ENSMUSG00000058013_ENSMUST00000074733|mouse|control|control (ssRNA)
RNA: GGGAGUUCUACAGUCCGACGAUCGCAGAAGCAAUGCUUUUCUCUUUUUUAAGCUUCUUUAGGAUUCUCUUGACUUCUUAUUCCCUGACUCUCCAGAGGAUUUAUUUUACUGAGAACAAAAACUUAAUGCAAAAAAAAUUCAAUCAACAGAGGAUUGAGCAUCA
B8: chr7:107556079:107556080:+_ENSG00000091140_ENST00000440410|hu_mus|FALSE|FALSE (ssRNA)
RNA: GGGAGUUCUACAGUCCGACGAUCAUCAAUUUUUCCAUCUGACUUCUUGGUGGCACCAGUAACUUUUGUAUUCAGUUUAAACUUAAAUCCUUGCCUCUGAAGUAUACGUUGAAAAUUUUUUGAUAUCUCCAUGUCAAUUCCAAUCAACAGAGGAUUGAGCAUCA
B9: chr5:29673426:29673427:-_ENSMUSG00000010721_ENSMUST00000055195|mus_mus|FALSE|FALSE (ssRNA)
RNA: GGGAGUUCUACAGUCCGACGAUCAUUGCUGAUGAUUGAGAAGGGUAAAAGCAAAACCGCGCCAGCUGACACGGCUAGAGUGAAGGUGCUCAGAAACAACGAUAUCCUGUUGACUACAGCAUCCUCAUCUUCUUGUUCAUCGGACAACAGAGGAUUGAGCAUCA
B10: 65670484_65705406_359_5pUTR_ENSG00000169902_ENST00000304842|human|control|control (ssRNA)
RNA: GGGAGUUCUACAGUCCGACGAUCGUGGUUAUCUUGUUAUUAAACAGAUAUUUUGCUCAAAAUGAUUUUCGGAAAAUGUUCAGGCCAUGGACAGUCUACUUCAGAAAGAUAACCAACAUCUGGGAUGAGUGAGGAGCCGCCGCGCAACAGAGGAUUGAGCAUCA
B11: chr7:141450121:141450122:+_ENSG00000106028_ENST00000265304|hu_mus|hu_hu_hu_mus_True|38_88 (ssRNA)
RNA: GGGAGUUCUACAGUCCGACGAUCUCAUCCGUUCUAUGCCUUUUCUUUCGUCUGGUCACUCAGAAAUAUAAUGUUAUCAGCUAUGAUUGUUGUUGCUUGUCGCCUCACAUUGUUUUUAUCCAUGUACUCGCCAUAGUCCACUUUCAACAGAGGAUUGAGCAUCA
B12: 11082498_11082618_1206_CDS_ENSG00000120948_ENST00000240185|human|control|control (ssRNA)
RNA: GGGAGUUCUACAGUCCGACGAUCACCAAUUGCUGCACCAGAAUUAGAGCCACUAUAAGAGUUAUUUCCAGAACCGAAGGCCUGGUUUGGCUCCCUCUGCAUGUUGCCUUGGUUUUGGUUAUUACCCGAUGGGCCUGACUGGUUCAACAGAGGAUUGAGCAUCA
B13: chr4:25749455:25749456:-_ENSG00000091490_ENST00000264868|hu_hu|hu_hu_hu_mus_False|88_88 (ssRNA)
RNA: GGGAGUUCUACAGUCCGACGAUCGCACUAUGACCUCUAGAAAAAUCAUUCAAGGAGAAAAAUGUAAACCAAUGUACAAUGUUAUCGCCUUCCCUGUGUGUGGAGUGUUUGUCUCAAGGCUCCUUCUAGCUGCUGGAUUUGGGACAACAGAGGAUUGAGCAUCA
B14: chr10:112764417:112764418:+_ENSG00000108061_ENST00000369452|hu_mus|motif|central (ssRNA)
RNA: GGGAGUUCUACAGUCCGACGAUCAAUGGUGGAAAACUGAGAUGGACCUCCCACUGGAUAUAACUGGAAGCAAUUUCGGGCGGAGGUCAAGCUAUUCAAUUUUACAAGACUGGAUAAAAGACUCUCUGGUAGAGUAGAAAUGUUCAACAGAGGAUUGAGCAUCA
B15: chr2:187373433:187373434:+_ENSG00000065548_ENST00000337859|hu_hu|motif|central (ssRNA)
RNA: GGGAGUUCUACAGUCCGACGAUCUUUUCAGCGAUGUGUUUGGUGUCAUUCUUCUAAAUCAAGUGUAUUUAAUUCUUCUUCGGGUUCAUCCAAAUCCUCUCCAGUGAAAAGAUUUUCAUCAACAGGAACAGCAUCAAUGGCUCCCAACAGAGGAUUGAGCAUCA
B16: chr4:17845017:17845018:+_ENSG00000109805_ENST00000514176|hu_mus|hu_hu_hu_mus_False|8_88 (ssRNA)
RNA: GGGAGUUCUACAGUCCGACGAUCGCUCUCUUAACUUGUAUCUUCAUGAGAAAUUGGUGCAAGGUUAAGUUUACUUUUCUGUAGCGCAGCUGUUUUGGCUCGUCUGGGUAAUCUCAUCUUCAUUUCUAUUCUGGUUCCAUGAUCCAACAGAGGAUUGAGCAUCA
B17: chr11:43702452:43702453:+_ENSG00000149084_ENST00000278353|hu_mus|FALSE|FALSE (ssRNA)
RNA: GGGAGUUCUACAGUCCGACGAUCCAAGGCCUCGUUGCCCACGCACCACACCUGGAAGGCCCUGAAGAGCGAGUACGAGGCUCGCAGGGCCAGGUAGGCAAUGGUGCUCGCGCCCACCCAGUACAGGAAGCCGGCCGCCGGGGGCAACAGAGGAUUGAGCAUCA
B18: chr2:48026839:48026840:+_ENSG00000116062_ENST00000540021|hu_hu|hu_hu_hu_mus_False|8_18 (ssRNA)
RNA: GGGAGUUCUACAGUCCGACGAUCAUAGUGAGCCACUAGCGUCCUAAAUCUGGAACAGUGGCGGUCAUCCGAAAACUGGCCGAUGAAAAACUUGCCCAGUGAAGUGUCCACAAAGCACACACCAUAUGCACGAGUAUGACCAGACAACAGAGGAUUGAGCAUCA
B19: chr14:62224477:62224478:+_ENSMUSG00000035235_ENSMUST00000039562|mus_hu|motif|central (ssRNA)
RNA: GGGAGUUCUACAGUCCGACGAUCUUCAUUGAAAAUGAAAAACCCAUCUGUCACCUGUUCCCAGUAAAAAACUGAUUGUUCGGUGAAAUCGGCUGUUUUAGUCAGAUAGGAACUGAAGUUUGAAAGACAGCCUUUCCAAGUUGCCAACAGAGGAUUGAGCAUCA
B20: chr5:67446008:67446009:+_ENSMUSG00000037736_ENSMUST00000038188|mus_hu|FALSE|FALSE (ssRNA)
RNA: GGGAGUUCUACAGUCCGACGAUCUACCUCCAAAGGUAAGUAACACAAAUGUUUCAGGAUUACAGUAUAUAUUAUCAAACUAGUGUCUUUGCAUUAAAAACAAAUUAUAGCUCAGAGAUAGAGCUUGCUGUGAUGUUUAGUUUCCAACAGAGGAUUGAGCAUCA
B21: chr12:103220134:103220135:+_ENSMUSG00000041781_ENSMUST00000047357|mus_mus|FALSE|FALSE (ssRNA)
RNA: GGGAGUUCUACAGUCCGACGAUCAGAGAGGGUGGUUAACUUGAUGAUAGAUGUCAUCUUUCUGGUCCAGUAAUGGGUAGCUAAAAGGGCCUGCCAGGCCAAUCUCCCCCCGGCACCGUCCGCCGCCCUUCCCAACCCCUAGUGCAACAGAGGAUUGAGCAUCA
B22: 100943914_100944342_96_5pUTR_ENSMUSG00000001755_ENSMUST00000001806|mouse|control|control (ssRNA)
RNA: GGGAGUUCUACAGUCCGACGAUCCUGAGCGGAACACGGCCAUGCUCUCCAGGCACCGCCGUGGAGGCGUCCUAGGCUGCAGCCCGGAAGCACUACCCACCAGCCUCAAAGCGUGGAGCUACGGGAACUCAGAGCAAUCAAACACAACAGAGGAUUGAGCAUCA

Target: T1, UNK ZnF1-3
Assay: nsRBNS (natural sequence RNA bind-n-seq); RBNS binding buffer (assumed for nsRBNS): 25 mM Tris pH 7.5, 150 mM KCl, 3 mM MgCl2, 0.01% Triton X-100, 500 ug/ml BSA, 20 U/ml SUPERase-In, 4 C; UNK is unkempt and MSI1 is Musashi-1; names of the RNAs are library labels; protein concentration not given here; high values mean tight binding

| Binder | binding signal [enrichment R] |
| --- | --- |
| B1 | 1.03 |
| B2 | 1.12 |
| B3 | 0.492 |
| B4 | 0.451 |
| B5 | 1.17 |
| B6 | 0.758 |
| B7 | 2.31 |
| B8 | 1.05 |
| B9 | 0.672 |
| B10 | 1.62 |
| B11 | 0.412 |
| B12 | 0.932 |
| B13 | 1.2 |
| B14 | 1.34 |
| B15 | 1.61 |
| B16 | 0.408 |
| B17 | 0.712 |
| B18 | 1.09 |
| B19 | 0.837 |
| B20 | 0.764 |
| B21 | 0.52 |
| B22 | 1.29 |
